Holding throughout (test): co-IP; multiplexed suspension bead array (SBA) immunoassay: clarified lysates (1% DM; 50 mM Hepes, 1 mM EDTA, 150 mM NaCl, 5 mM MgCl2, pH 7.4) of HEK293F cells cotransfected with tagged GPCR and RAMP, diluted to 50 ug/ml, incubated overnight at 4°C with bar-coded beads carrying anti-tag (HA, 1D4, FLAG, OLLAS), anti-GPCR or anti-RAMP Abs; the partner detected with a PE-conjugated anti-tag mAb; Luminex FlexMap 3D, MFI

By UniProt entry, the sequences of proteins in these tests, tags left out. Residues count along the entry.
UniProt P46093: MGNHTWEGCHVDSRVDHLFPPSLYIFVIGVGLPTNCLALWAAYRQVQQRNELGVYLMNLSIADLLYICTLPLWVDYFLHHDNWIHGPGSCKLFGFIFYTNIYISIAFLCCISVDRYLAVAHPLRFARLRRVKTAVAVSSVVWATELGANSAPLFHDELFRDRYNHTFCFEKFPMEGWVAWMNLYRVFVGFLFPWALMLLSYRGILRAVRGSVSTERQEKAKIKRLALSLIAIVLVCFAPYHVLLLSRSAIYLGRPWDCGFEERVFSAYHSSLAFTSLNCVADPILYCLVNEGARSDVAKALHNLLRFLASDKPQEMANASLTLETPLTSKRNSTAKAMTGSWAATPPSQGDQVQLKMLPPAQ
UniProt P41586, residues 24-468: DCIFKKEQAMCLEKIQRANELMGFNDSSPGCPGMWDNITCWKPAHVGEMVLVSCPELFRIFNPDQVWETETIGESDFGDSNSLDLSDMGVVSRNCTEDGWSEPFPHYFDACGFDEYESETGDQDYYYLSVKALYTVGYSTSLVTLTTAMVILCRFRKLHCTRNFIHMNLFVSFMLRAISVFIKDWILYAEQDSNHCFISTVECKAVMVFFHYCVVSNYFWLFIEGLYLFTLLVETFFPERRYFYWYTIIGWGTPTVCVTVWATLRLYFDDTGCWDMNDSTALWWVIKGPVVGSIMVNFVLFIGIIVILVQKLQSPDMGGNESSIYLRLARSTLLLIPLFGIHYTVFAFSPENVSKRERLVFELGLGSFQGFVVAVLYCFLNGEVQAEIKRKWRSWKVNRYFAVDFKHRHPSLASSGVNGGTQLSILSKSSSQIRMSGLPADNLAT
UniProt P61073: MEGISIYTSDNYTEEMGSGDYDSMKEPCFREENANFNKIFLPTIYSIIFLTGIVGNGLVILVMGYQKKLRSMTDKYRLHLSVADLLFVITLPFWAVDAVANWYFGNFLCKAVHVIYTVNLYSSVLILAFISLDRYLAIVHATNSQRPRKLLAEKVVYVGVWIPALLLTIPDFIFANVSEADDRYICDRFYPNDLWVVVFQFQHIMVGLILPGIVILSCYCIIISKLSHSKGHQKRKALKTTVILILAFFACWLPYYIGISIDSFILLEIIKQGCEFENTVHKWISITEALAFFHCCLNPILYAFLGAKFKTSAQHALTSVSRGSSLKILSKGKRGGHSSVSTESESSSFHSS
UniProt O60894, residues 27-148: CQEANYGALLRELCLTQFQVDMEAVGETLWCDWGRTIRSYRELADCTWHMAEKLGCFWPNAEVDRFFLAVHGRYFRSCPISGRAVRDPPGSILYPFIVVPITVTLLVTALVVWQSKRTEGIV
UniProt O60895, residues 43-175: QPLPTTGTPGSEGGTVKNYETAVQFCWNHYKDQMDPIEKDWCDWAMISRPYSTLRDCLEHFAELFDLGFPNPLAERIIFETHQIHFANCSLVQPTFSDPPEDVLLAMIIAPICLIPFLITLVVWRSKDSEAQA

In experiment [1] the target is G protein-coupled receptor 4 (human) (UniProt P46093).
For experiment [2], the target named is Pituitary adenylate cyclase-activating polypeptide type 1 (human) (UniProt P41586).
Experiment [3] has as its target C-X-C chemokine receptor type 4 (human) (UniProt P61073).
Experiment [4] has as its target T1, Glucagon-like receptor 2 (human) (UniProt O95838).
T1 sequence: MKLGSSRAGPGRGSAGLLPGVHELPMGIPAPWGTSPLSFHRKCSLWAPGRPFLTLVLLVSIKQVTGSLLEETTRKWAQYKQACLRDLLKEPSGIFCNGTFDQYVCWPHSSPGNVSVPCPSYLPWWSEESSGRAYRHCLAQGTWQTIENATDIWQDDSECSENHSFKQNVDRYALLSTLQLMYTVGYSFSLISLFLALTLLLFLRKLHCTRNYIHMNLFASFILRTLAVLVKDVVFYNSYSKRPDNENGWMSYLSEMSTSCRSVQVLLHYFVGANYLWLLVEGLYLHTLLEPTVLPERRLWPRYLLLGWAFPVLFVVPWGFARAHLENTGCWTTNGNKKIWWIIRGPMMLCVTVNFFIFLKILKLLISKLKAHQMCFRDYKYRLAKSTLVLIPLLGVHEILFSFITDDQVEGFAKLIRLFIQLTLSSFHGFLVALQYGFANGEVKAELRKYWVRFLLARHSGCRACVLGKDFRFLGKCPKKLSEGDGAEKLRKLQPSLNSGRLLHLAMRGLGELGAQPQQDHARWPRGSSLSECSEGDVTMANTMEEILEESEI

The target in experiment [5] is T2, VIP and PACAP receptor 1 (human) (UniProt P32241).
T2 sequence: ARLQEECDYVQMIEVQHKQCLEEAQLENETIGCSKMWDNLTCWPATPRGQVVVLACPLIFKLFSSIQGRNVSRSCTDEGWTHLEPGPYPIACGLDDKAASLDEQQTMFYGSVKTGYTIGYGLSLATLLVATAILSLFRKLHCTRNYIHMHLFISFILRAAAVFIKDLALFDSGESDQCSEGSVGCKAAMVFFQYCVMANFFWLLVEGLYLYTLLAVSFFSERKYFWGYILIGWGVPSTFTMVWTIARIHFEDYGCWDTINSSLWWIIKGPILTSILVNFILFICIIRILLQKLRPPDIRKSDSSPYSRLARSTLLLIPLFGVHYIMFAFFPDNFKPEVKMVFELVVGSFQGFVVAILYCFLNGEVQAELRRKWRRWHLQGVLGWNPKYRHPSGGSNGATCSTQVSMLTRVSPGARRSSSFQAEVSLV

Experiment [6] concerns the target T3, VIP and PACAP receptor 2 (human) (UniProt P41587).
T3 sequence: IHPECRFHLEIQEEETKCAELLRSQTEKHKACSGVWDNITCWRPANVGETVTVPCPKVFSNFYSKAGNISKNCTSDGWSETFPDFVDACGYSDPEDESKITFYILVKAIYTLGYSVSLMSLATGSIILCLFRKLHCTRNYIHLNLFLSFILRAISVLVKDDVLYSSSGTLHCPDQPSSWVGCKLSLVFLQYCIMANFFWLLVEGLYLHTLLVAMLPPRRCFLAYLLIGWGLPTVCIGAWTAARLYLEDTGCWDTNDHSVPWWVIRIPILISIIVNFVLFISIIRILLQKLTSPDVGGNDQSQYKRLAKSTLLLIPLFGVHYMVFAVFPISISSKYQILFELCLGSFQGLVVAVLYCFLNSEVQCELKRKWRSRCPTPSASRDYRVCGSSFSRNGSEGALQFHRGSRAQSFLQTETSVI

No constants are given. Whether binding was seen depends on the method and setting. In cells and extracts the contact can be indirect. Some entries that bind do so weakly or less than the wild type. For part of these data: Where a sequence is shown, tags or fusion partners need not be part of it.

The values that follow come from publication PMC6750928.

Turning to “Receptor activity-modifying protein 1 (from UniProt O60894 27-148)”, the binding result in experiment [1] is “binds”; in experiment [2], “binds”; in experiment [3], “no binding”; in experiment [4] it was “binds”; in experiment [5], “no binding”; in experiment [6] it was “binds”.

For the molecule “Receptor activity-modifying protein 2 (from UniProt O60895 43-175)”, the binding entry in experiment [1] is “binds”; in experiment [2], “binds”; in experiment [3], “no binding”; in experiment [4], “binds”; in experiment [5], “binds”; in experiment [6], “binds”.

B1: Receptor activity-modifying protein 3 (protein, UniProt O60896 28-148)
chain: CNETGMLERLPLCGKAFADMMGKVDVWKWCNLSEFIVYYESFTNCTEMEANVVGCYWPNPLAQGFITGIHRQFFSNCTVDRVHLEDPPDEVLIPLIVIPVVLTVAMAGLVVWRSKRTDTLL
On to B1, for which the binding entry is reported as “binds” in experiment [1]; “binds” in experiment [2]; “no binding” in experiment [3]; “binds” in experiment [4]; “binds” in experiment [5]; “binds” in experiment [6].
